# Measurements published in the supplement of paper PMC4604168 (melanoma cell lines).
# The list shows a part of the results. Many values rest on one well or one pass, so single values are uncertain.
# System: SkMel2
# Assay: cell count relative to DMSO control; melanoma cells; higher = more viable cells
# Details: library dose: standard library concentration; 72 h
# 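Further: cells treated in 1,536-well plates, then fixed and DAPI-stained, with nuclei counted from automated high-throughput microscope images.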
row,Structure (SMILES),cell count [%]
1,"CC1(C)CCC(c2ccc(Cl)cc2)=C(CN2CCN(c3ccc(C(=O)NS(=O)(=O)c4ccc(N[C@H](CCN5CCOCC5)CSc5ccccc5)c(S(=O)(=O)C(F)(F)F)c4)cc3)CC2)C1 + COc1cc(N2CCC(N3CCN(C)CC3)CC2)ccc1Nc1ncc(Cl)c(Nc2ccccc2S(=O)(=O)C(C)C)n1 [NVP-TAE684] (first compound 2 µM, partner dose 0.4 µM)",51.4
2,"CC1(C)CCC(c2ccc(Cl)cc2)=C(CN2CCN(c3ccc(C(=O)NS(=O)(=O)c4ccc(N[C@H](CCN5CCOCC5)CSc5ccccc5)c(S(=O)(=O)C(F)(F)F)c4)cc3)CC2)C1 + Cn1cc(/C=C2\C(=O)Nc3cccnc32)c2ccccc21 [GW441756] (first compound 2 µM, partner dose 2 µM)",97.4
3,"O=C(/C=C/c1cccnc1)NCCCCC1CCN(C(=O)c2ccccc2)CC1 + COc1cc2ncnc(Nc3ccc(Oc4ccccc4)cc3)c2cc1OC [SrcI1] (first compound 0.05 µM, partner dose 10 µM)",29.3
4,"O=C(/C=C/c1cccnc1)NCCCCC1CCN(C(=O)c2ccccc2)CC1 + O=S(=O)(c1ccccc1)N(CC(F)(F)F)c1ccc(C(O)(C(F)(F)F)C(F)(F)F)cc1 [T0901317] (first compound 0.05 µM, partner dose 7 µM)",20.7
5,"CC1(C)CCC(c2ccc(Cl)cc2)=C(CN2CCN(c3ccc(C(=O)NS(=O)(=O)c4ccc(N[C@H](CCN5CCOCC5)CSc5ccccc5)c(S(=O)(=O)C(F)(F)F)c4)cc3)CC2)C1 + COC(=O)c1sccc1S(=O)(=O)Nc1ccc(Nc2ccccc2)cc1OC [GSK0660] (first compound 2 µM, partner dose 5 µM)",75.6
6,"CC1(C)CCC(c2ccc(Cl)cc2)=C(CN2CCN(c3ccc(C(=O)NS(=O)(=O)c4ccc(N[C@H](CCN5CCOCC5)CSc5ccccc5)c(S(=O)(=O)C(F)(F)F)c4)cc3)CC2)C1 + c1cc(-c2cnn3cc(-c4ccc(OCCN5CCCCC5)cc4)cnc23)ccn1 [Dorsomorphin] (first compound 2 µM, partner dose 2 µM)",83
7,"Cc1ccc(Nc2nccc(N(C)c3ccc4c(C)n(C)nc4c3)n2)cc1S(N)(=O)=O [Pazopanib] + CO[C@@H]1[C@H](N(C)C(=O)c2ccccc2)C[C@H]2O[C@]1(C)n1c3ccccc3c3c4c(c5c6ccccc6n2c5c31)C(=O)NC4 [Midostaurin] (first compound 2 µM, partner dose 0.4 µM)",41.1
8,"O=C(/C=C/c1cccnc1)NCCCCC1CCN(C(=O)c2ccccc2)CC1 + CO[C@@H]1[C@H](N(C)C(=O)c2ccccc2)C[C@H]2O[C@]1(C)n1c3ccccc3c3c4c(c5c6ccccc6n2c5c31)C(=O)NC4 [Midostaurin] (first compound 0.05 µM, partner dose 0.4 µM)",21.8
9,"Cc1ccc(Nc2nccc(N(C)c3ccc4c(C)n(C)nc4c3)n2)cc1S(N)(=O)=O [Pazopanib] + Oc1nc(-c2ccc(C(F)(F)F)cc2)nc2c1CSCC2 [XAV939] (first compound 2 µM, partner dose 10 µM)",84.8
10,"CC1(C)CCC(c2ccc(Cl)cc2)=C(CN2CCN(c3ccc(C(=O)NS(=O)(=O)c4ccc(N[C@H](CCN5CCOCC5)CSc5ccccc5)c(S(=O)(=O)C(F)(F)F)c4)cc3)CC2)C1 + Cc1ccc(Nc2nccc(N(C)c3ccc4c(C)n(C)nc4c3)n2)cc1S(N)(=O)=O [Pazopanib] (first compound 2 µM, partner dose 2 µM)",88.5
11,"CC1(C)CCC(c2ccc(Cl)cc2)=C(CN2CCN(c3ccc(C(=O)NS(=O)(=O)c4ccc(N[C@H](CCN5CCOCC5)CSc5ccccc5)c(S(=O)(=O)C(F)(F)F)c4)cc3)CC2)C1 + CCCCCCCCCCCC1=C(O)C(=O)C=C(O)C1=O [Embelin] (first compound 2 µM, partner dose 6 µM)",64.1
12,"Cc1ccc(Nc2nccc(N(C)c3ccc4c(C)n(C)nc4c3)n2)cc1S(N)(=O)=O [Pazopanib] + NCC(=O)Nc1ccc(-n2nc(C(F)(F)F)cc2-c2ccc3c(ccc4ccccc43)c2)cc1 [OSU03012] (first compound 2 µM, partner dose 5 µM)",37
13,"O=C(/C=C/c1cccnc1)NCCCCC1CCN(C(=O)c2ccccc2)CC1 + Cn1cc(/C=C2\C(=O)Nc3cccnc32)c2ccccc21 [GW441756] (first compound 0.05 µM, partner dose 2 µM)",21.5
14,"O=C(/C=C/c1cccnc1)NCCCCC1CCN(C(=O)c2ccccc2)CC1 + CCCCCCCCCCCC1=C(O)C(=O)C=C(O)C1=O [Embelin] (first compound 0.05 µM, partner dose 6 µM)",55.9
15,"O=C(/C=C/c1cccnc1)NCCCCC1CCN(C(=O)c2ccccc2)CC1 + Cc1cc(Nc2cc(N3CCN(C)CC3)nc(/C=C/c3ccccc3)n2)n[nH]1 [ENMD2076] (first compound 0.05 µM, partner dose 0.2 µM)",15.6
16,"O=C(/C=C/c1cccnc1)NCCCCC1CCN(C(=O)c2ccccc2)CC1 + COC(=O)c1sccc1S(=O)(=O)Nc1ccc(Nc2ccccc2)cc1OC [GSK0660] (first compound 0.05 µM, partner dose 5 µM)",15.3
